Reference: publication PMC4336329 (PLoS ONE, 2015)
Out of some 310,000 compounds screened, about 14,000 (4.5%) showed an effect of 50% or more. Effects have a minus sign here. This is one part of the list.

The compounds below were run against human ether-à-go-go-related gene (hERG) potassium channel (human, UniProt Q12809) (assay: primary screen, population patch clamp on CHO cells stably expressing hERG).
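Further: peak tail current of the secondary pulse compared with the same well before compound.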

Sequence of human ether-à-go-go-related gene (hERG) potassium channel (Q12809 whole entry, looked up): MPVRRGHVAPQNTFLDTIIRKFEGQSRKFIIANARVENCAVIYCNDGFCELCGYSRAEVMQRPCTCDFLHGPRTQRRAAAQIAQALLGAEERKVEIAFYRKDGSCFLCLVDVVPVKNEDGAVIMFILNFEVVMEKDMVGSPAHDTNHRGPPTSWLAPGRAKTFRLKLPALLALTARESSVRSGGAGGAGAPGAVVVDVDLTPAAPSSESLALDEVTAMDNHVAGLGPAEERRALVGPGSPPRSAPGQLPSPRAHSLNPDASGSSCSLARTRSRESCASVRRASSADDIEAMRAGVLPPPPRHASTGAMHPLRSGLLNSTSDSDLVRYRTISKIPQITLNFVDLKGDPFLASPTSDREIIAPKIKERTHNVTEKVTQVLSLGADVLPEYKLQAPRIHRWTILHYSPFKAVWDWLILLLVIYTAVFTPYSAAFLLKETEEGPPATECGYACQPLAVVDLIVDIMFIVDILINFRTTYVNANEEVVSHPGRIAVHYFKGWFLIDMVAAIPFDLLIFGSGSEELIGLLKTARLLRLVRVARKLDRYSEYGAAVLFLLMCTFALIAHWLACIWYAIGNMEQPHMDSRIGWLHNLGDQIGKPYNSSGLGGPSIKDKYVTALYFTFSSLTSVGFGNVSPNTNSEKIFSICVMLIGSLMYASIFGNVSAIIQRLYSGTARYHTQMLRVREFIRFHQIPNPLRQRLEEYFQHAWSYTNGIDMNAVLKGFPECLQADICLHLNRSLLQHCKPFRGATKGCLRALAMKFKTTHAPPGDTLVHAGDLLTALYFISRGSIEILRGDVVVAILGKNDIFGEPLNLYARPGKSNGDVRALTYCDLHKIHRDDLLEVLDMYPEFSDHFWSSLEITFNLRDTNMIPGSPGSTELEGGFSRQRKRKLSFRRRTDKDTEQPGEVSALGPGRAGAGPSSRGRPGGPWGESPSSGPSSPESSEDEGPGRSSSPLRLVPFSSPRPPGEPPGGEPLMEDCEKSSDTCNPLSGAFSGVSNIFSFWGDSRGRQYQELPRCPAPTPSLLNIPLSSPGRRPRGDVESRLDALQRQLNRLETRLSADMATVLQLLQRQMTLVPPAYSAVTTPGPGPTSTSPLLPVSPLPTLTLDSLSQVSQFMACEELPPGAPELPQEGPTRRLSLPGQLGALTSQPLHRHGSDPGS

Structure (SMILES) | hERG current change (%, negative = inhibition) at 10uM [%]
NS(=O)(=O)c1ccc(NC(=O)c2ccc(COc3ccccc3)o2)cc1 | 19.4
COc1ccc2[nH]c(=O)c(CN(Cc3ccccc3)C(=S)NCC3CCCO3)cc2c1 (stereo not drawn) | 11.8
COc1ccc(C(=O)CC2(C(=O)O)CCCCC2)cc1 | 9.45
O=C(OCc1ccc(Br)cc1F)c1cc2ccccc2oc1=O | -1.96
COc1ccccc1C(=O)Nc1cccc(C(=O)c2ccccc2)c1 | -33.5
Cc1sc2ncnc(SCC(=O)N3CCCC3=O)c2c1C | 2.84
Cc1ccc(CNC(=O)CSc2nnc3c(n2)[nH]c2ccc(F)cc23)cc1 | 13.1
CCOc1ccc(OCCC(=O)OCC(=O)N2CCN(S(=O)(=O)c3ccc(Cl)cc3)CC2)cc1 | -38.9
COc1ccc2cc(OCC(=O)NNC(=O)Nc3ccc(F)cc3)ccc2c1 | 17.3
COc1cc(-c2noc(CCCC(=O)NCc3ccccc3)n2)cc(OC)c1OC | 3.99
CCc1ccc(N(CC(=O)Nc2ccccc2C(=O)N2CCCC2)S(C)(=O)=O)cc1 | -10.6
CCOC(=O)C1=C(C)n2c(s/c(=C/c3cccc([N+](=O)[O-])c3)c2=O)=NC1c1ccc(O)c(OC)c1 (stereo not drawn) | -10.7
COc1cc(-n2c(=O)c3ccccc3n(CC(=O)c3ccc(F)cc3)c2=O)cc(OC)c1OC | 21
CCOCCCNc1ncc2c(n1)CC(c1ccc(C)cc1)CC2=O (stereo not drawn) | 10.2
COCCNC(=O)c1cccc(OC2CCN(Cc3ccccc3C)CC2)c1 | 6.34
Cc1cc(C)n2nc(SCC(=O)N3CCN(c4ccc(F)cc4)CC3)nc2n1 | -33
Oc1c(C(c2ccccc2)N2CCc3ccccc3C2)sc2ncnn12 (stereo not drawn) | 5.98
O=C(NCCCN1CCN(c2ccccc2F)CC1)Nc1ccccc1[N+](=O)[O-] | -72.1
Cc1cc(Cl)ccc1OCC(=O)NNC(=O)C1CCCO1 (stereo not drawn) | 14.6
CC(NC(=O)Cc1cccs1)c1ccc2c(c1)OCO2 (stereo not drawn) | -1
CN(C(=O)COC(=O)c1ccc(C(C)(C)C)cc1)C1CCS(=O)(=O)C1 (stereo not drawn) | -22.7
O=C(Cn1nnc2ccccc21)OCC(=O)c1ccc(Cl)c(Cl)c1 | 1.31
CC1CCN(CCCNC(=O)C2CCN(S(=O)(=O)N3CCCCC3)CC2)CC1 | -2.08
CCOC(=O)c1c(N)c2cc([N+](=O)[O-])ccc2n1C | 18.1
O=C(CCOc1ccccc1)Nc1ccnn1C1CCN(CCc2ccccc2)CC1 | -65.1
CCOc1ccc(N/C(=N/c2nc(C)cc(C)n2)NC(C)=O)cc1 | -12.2
Cc1cccc(C)c1N(CC(=O)N1CCN(c2ccccc2F)CC1)S(C)(=O)=O | -0.334

Structure (SMILES) | hERG current change (%, negative = inhibition) at 10uM [%]
COc1cccc(C(=O)C2CCCN(C(=O)CCc3scnc3C)C2)c1 (stereo not drawn) | -12.7
O=C(NCc1ccco1)Nc1cccs1 | 6.01
O=C(C1CC1)N1N=C(c2ccc(Cl)cc2)CC1(O)C(F)(F)F (stereo not drawn) | -0.113
CN(CC(=O)Nc1cccc(F)c1)C(=O)Cn1cnc2c1c(=O)n(C)c(=O)n2C | -4.34
Cc1ccc(S(=O)(=O)Nc2cccc(-c3ccc4nnc(C)n4n3)c2)s1 | -1.27
Cl.c1ccc(COc2ccc(CNCc3cccnc3)cc2)cc1 | -12.8
COc1ccc(/C=C2\Oc3cc(OCC(=O)N4CCC[C@H]4C(=O)O)ccc3C2=O)cc1OC | -3.38
CCN(CC)S(=O)(=O)c1ccc2c(c1)c(=O)c(C(=O)NCCc1ccccc1)cn2C | -0.204
COc1ccc(S(=O)(=O)NCc2ccccn2)c(C)c1C | 0.26
Cc1ccc(N=Cc2c(O)c3ccccc3oc2=O)cc1F | 15.5
COc1cc([N+](=O)[O-])ccc1-c1ccc(C(=O)Nc2ccc(NC(C)=O)cc2)o1 | -3.8
CCOC(=O)c1[nH]c(C)c(C(=O)NCc2ccco2)c1C | -4.63
CCOC(=O)C1=C(C)NC2=C(C(=O)C(C(=O)OCC)C(c3ccccc3OC)C2)C1c1ccccn1 (stereo not drawn) | -5.07
O=C(OCC(=O)N1CCc2ccccc21)c1c2c(nc3ccccc13)CCCCC2 | 8.66
Cc1cccc2cc(C#N)c(NCc3ccccc3)nc12 | 16.6
Nc1nnc(SCC(=O)Nc2cccc(S(=O)(=O)N3CCCCC3)c2)s1 | -12.8
COc1ccc(Cl)c2sc(N3CCN(C(C)=O)CC3)nc12 | -20.4
O=C(O)CCc1ccc(-c2ccc(Br)cc2)n1-c1cccc(O)c1 | 7.19
COc1ccccc1N1CCN(C(=O)c2ccc3c(=O)n4c(nc3c2)CCCCC4)CC1.Cl | -5.46
O=S(=O)(c1ccccc1)N1CCN(C(=S)NCc2ccccc2)CC1 | -50.3
Cc1cc(C)n(Cc2cccc(F)c2)c(=O)c1C#N | -2.93
Cc1ccccc1/C(N)=N/OC(=O)N1c2ccccc2Sc2ccccc21 | 11.6
COc1ccc(NC(=O)CSc2nc(SC)ns2)cc1 | 10.5
Cc1nn(-c2ccccc2)c(Cl)c1/C=N/Nc1nc2ccccc2n1C | -3.1
CCOC(=O)N1CCC(NC(=O)c2cc3c(=O)n(C)c4ccccc4c3n2C)CC1 | 5.27
CCOC(=O)N1CCN(Cc2nc3c(c(=O)[nH]c(=O)n3C)n2Cc2ccccc2C)CC1 | -19.9
COc1cccc(/C=C2\SC(=S)N(CCCC(=O)Nc3ccc(C(=O)O)cc3)C2=O)c1 | 22.8
